PubChem BioAssay AID504333 (National Center for Advancing Translational Sciences (NCATS), 2011)
In all, about 360,000 compounds went through this assay and about 16,000 (4.4%) were called active. Inconclusive means that the source gave no clear call. Such entries were picked first, then a sample of the others. The call rests on the fitted dose curve; in most records, active means well fitted inhibition curve with a large enough effect; inconclusive means small, poorly fitted or top-dose-only effect; inactive means no such curve, though single readings can be large or run the other way. Potencies of inconclusive entries are doubtful fits and often do not repeat.

biological target: Bromodomain adjacent to zinc finger domain protein 2B (Homo sapiens) (UniProt Q9UIF8); assay: qHTS Assay for Inhibitors of BAZ2B; details: AlphaScreen BAZ2B-H3K14Ac peptide displacement; series mostly up to 114 µM; further: nearly all actives have a fitted effect of over 60% in size
UniProt Q9UIF8, sequence (Q9UIF8 whole entry, looked up, the tested form may be a part): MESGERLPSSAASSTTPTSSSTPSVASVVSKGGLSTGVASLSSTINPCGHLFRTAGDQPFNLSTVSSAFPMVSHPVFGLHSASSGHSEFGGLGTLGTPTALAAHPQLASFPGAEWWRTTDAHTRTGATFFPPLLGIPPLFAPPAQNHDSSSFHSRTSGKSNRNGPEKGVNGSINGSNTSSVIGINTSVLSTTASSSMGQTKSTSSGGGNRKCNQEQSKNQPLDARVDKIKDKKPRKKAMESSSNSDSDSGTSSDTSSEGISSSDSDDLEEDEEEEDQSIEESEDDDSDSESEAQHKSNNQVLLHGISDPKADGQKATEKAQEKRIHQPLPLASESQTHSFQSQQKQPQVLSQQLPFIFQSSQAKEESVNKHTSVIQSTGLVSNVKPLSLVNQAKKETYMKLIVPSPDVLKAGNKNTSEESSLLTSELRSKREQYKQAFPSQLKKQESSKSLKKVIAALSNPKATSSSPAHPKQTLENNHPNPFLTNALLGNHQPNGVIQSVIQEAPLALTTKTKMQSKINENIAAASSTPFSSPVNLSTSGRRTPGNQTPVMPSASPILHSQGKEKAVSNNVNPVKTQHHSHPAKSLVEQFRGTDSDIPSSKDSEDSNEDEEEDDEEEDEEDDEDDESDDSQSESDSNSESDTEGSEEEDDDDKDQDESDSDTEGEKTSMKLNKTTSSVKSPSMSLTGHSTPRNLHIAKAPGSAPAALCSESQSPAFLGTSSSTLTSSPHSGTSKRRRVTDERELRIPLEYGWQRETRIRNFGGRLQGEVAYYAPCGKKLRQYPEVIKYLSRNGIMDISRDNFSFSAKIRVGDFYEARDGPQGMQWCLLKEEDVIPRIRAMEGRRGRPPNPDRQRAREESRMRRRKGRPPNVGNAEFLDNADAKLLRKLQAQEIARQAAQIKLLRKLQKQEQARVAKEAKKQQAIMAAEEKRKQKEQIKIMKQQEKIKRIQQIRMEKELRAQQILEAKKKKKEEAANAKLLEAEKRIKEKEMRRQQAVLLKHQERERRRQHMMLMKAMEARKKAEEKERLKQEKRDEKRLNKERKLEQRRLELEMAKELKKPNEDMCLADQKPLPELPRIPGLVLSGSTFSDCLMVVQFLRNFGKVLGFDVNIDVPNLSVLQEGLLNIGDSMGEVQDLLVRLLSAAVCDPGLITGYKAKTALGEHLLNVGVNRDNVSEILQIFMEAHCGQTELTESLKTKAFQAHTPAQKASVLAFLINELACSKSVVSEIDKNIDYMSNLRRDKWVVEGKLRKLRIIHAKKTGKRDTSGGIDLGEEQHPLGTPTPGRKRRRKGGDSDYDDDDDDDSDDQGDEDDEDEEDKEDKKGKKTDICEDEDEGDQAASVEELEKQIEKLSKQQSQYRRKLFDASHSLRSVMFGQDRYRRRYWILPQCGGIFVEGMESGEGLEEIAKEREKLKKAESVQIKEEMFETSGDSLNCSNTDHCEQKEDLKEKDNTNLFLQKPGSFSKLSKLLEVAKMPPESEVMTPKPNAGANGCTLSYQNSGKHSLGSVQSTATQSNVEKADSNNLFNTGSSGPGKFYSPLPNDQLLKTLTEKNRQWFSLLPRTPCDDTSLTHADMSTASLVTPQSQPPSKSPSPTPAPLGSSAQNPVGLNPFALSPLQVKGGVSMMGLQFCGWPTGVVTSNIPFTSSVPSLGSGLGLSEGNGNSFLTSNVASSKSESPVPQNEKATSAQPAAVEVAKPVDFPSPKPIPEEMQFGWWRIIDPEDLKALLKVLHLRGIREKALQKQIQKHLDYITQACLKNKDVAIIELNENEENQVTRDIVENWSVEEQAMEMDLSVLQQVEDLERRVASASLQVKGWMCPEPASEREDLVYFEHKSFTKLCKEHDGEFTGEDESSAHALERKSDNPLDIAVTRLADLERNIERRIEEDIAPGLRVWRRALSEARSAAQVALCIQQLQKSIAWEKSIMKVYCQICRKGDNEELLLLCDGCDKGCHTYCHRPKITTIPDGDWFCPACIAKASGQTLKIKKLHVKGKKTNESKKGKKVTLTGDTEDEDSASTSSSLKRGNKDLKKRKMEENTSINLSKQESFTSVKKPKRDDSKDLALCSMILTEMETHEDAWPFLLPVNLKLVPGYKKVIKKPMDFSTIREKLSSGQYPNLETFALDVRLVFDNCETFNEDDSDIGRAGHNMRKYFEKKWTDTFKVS
In short: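 Multi-concentration screen (max 110 uM) measuring displacement of acetylated histone H3 peptide from BAZ2B by AlphaScreen, using 50 nM protein, 50 nM peptide and 10 ug/mL streptavidin donor plus Ni-chelate acceptor beads.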
Potency means the concentration at half of the fitted maximal effect; tags describe the fitted curve by direction and shape.

Row | SMILES | Potency
1 | CC(C)C(NC(=O)OCc1ccccc1)C(=O)OCC(=O)NCc1ccco1 (stereo not given) | active: 50.1 µM
2 | O=C(OCc1cc2ccccc2[nH]c1=O)c1ccccn1 | inconclusive: 89.1 µM [inhibitor, single point]
3 | O=C(c1ccccc1)N1CCN(c2ccc([N+](=O)[O-])c(NCC3CCCO3)c2)CC1 (stereo not given) | inconclusive: 79.4 µM [inhibitor, partial curve]
4 | COc1ccc2cnnc(SCC(=O)Nc3ccc(C(=O)O)cc3)c2c1OC | inconclusive: 89.1 µM [inhibitor, single point]
5 | Cc1cccnc1Nc1nc(-c2ccc(O)cc2O)cs1 | inconclusive: 44.7 µM [inhibitor, partial curve]
6 | CCC(C)NC(=O)CSc1nc2c(sc(=S)n2Cc2ccco2)c(=O)n1-c1ccccc1 (stereo not given) | inconclusive: 11.2 µM [inhibitor, single point]
7 | O=C(NCCc1ccccc1F)C1CCC(=O)N(Cc2ccc(Cl)cc2)C1 (stereo not given) | inconclusive: 89.1 µM [inhibitor, single point]
8 | COc1ccccc1NS(=O)(=O)c1ccc(C(=O)OCC(=O)NCc2ccco2)cc1 | active: 50.1 µM
9 | COc1ccc(C(C)=O)cc1CN(c1ccccc1OC)S(=O)(=O)c1cccs1 | inactive
10 | CC(=O)c1ccc(NC(=O)C2C3C=CC(C3=C(c3ccccc3)c3ccccc3)C2C(=O)O)cc1 (stereo not given) | inconclusive: 79.4 µM [inhibitor, single point]
11 | O=C(NNC(=S)NC(=O)c1cccnc1)c1ccc(Cl)cc1 | inactive
12 | CC(=O)Nc1ccccc1-c1nn[nH]n1 | inconclusive: 12.6 µM [inhibitor, full curve, poor fit]
13 | Cc1ccc(-n2c(C)cc(/C=N/Nc3ccc([N+](=O)[O-])cn3)c2C)c(C)c1 | inconclusive: 79.4 µM [inhibitor, single point]
14 | Cc1cccc(NC(=O)CSc2nc(-c3ccco3)nc3cc(=O)[nH]n23)c1 | active: 79.4 µM
15 | O=[N+]([O-])c1cc(C(F)(F)F)cc([N+](=O)[O-])c1N1CCN(S(=O)(=O)c2ccccc2)CC1 | inconclusive: 15.8 µM [inhibitor, full curve, poor fit]
16 | Cc1ccc2oc(C(=O)N3CCN(c4cccc(C)n4)CC3)c(C)c2c1 | inactive
17 | O=C(NC1CCCCC1)C(c1cccs1)N(C(=O)Cc1c[nH]c2ccccc12)c1ccc(F)cc1 (stereo not given) | inconclusive: 35.5 µM [inhibitor, full curve, poor fit]
18 | O=C(CCN1CCN(c2ccccc2)CC1)N/N=C/c1ccc(O)c(O)c1O | active: 8.91 µM
19 | COc1ccc(C2(CNS(=O)(=O)c3ccc(C)cc3)CCOCC2)cc1 | inactive
20 | Cc1ccc(C(=O)Nc2ncn[nH]2)cc1 | active: 50.1 µM
21 | Cc1ccc(S(=O)(=O)NCC(c2ccc(N(C)C)cc2)N2CCOCC2)cc1 (stereo not given) | inactive
22 | COc1ccc(NC2CC(=O)N(c3cc([N+](=O)[O-])ccc3C)C2=O)cc1 (stereo not given) | inconclusive: 70.8 µM [inhibitor, single point]
23 | CSc1ccccc1NC(=O)C1=CC(c2ccc(C)cc2)=NS(=O)(=O)N1C | inconclusive: 70.8 µM [inhibitor, single point]
24 | Cc1ccc(OCC(=O)NCCO)cc1C | inconclusive: 10 µM [inhibitor, single point]

Row | SMILES | Potency
25 | COc1cccc(C(=O)/C=C/Nc2cc(C)ccc2O)c1 | inconclusive: 44.7 µM [inhibitor, partial curve]
26 | CCC(=O)N1CCN(c2nc(-c3ccc(Cl)cc3)cs2)CC1 | inconclusive: 89.1 µM [inhibitor, single point]
27 | Cc1ccc(-c2nc3ccccn3c2Nc2ccc3c(c2)OCO3)cc1 | active: 17.8 µM
28 | COc1cccc(-n2ccnc2SCC(=O)Nc2ccccc2F)c1 | active: 25.1 µM
29 | O=C(C1CCCN(S(=O)(=O)Cc2ccccc2)C1)N1CCc2ccccc21 (stereo not given) | inconclusive: 14.1 µM [inhibitor, full curve, poor fit]
30 | COc1ccc(-c2cn3c4c(sc3n2)CCCC4)cc1 | inconclusive: 70.8 µM [inhibitor, single point]
31 | CCN(CC)CCN(C(=O)c1cc2ccccc2cc1OC)c1nc2ccc(OC)cc2s1 | inconclusive: 11.2 µM [inhibitor, partial curve]
32 | Oc1cc(O)c2c(c1)O[C@H](c1ccc(O)c(O)c1)[C@H](O)C2 | inconclusive: 100 µM [inhibitor, single point]
33 | Cc1ccc2c(c1)c1c(n2CC(O)CN2CCC(C)CC2)CCCC1 (stereo not given) | inconclusive: 50.1 µM [inhibitor, partial curve, poor fit]
34 | COc1ccc(OCC(O)CNCCOc2ccccc2OC)c(C(C)(C)C)c1 (stereo not given) | active: 50.1 µM
35 | O=C(NC1CCCCCC1)C1CCCN(c2ncccn2)C1 (stereo not given) | inconclusive: 89.1 µM [inhibitor, single point]
36 | CCOC(=O)c1c(-c2ccccc2)csc1NC(=O)/C(C#N)=C/c1ccc(O)c(OC)c1 | inconclusive: 44.7 µM [inhibitor, partial curve]
37 | C=CCn1c(CCC(=O)O)ccc1-c1ccccc1 | inconclusive: 89.1 µM [inhibitor, single point]
38 | O=C(O)COc1ccccc1-c1nc(-c2ccccc2)c(-c2ccccc2)[nH]1 | inconclusive: 89.1 µM [inhibitor, single point]
39 | COc1ccc2c(c1)c(CC(=O)O)c(C)n2C(=O)c1ccc(Cl)cc1 | inconclusive: 100 µM [inhibitor, partial curve]
40 | Cc1ccc(NC(=O)C(OC(=O)c2cnc(C)cn2)c2ccccc2)c([N+](=O)[O-])c1 (stereo not given) | inconclusive: 39.8 µM [inhibitor, partial curve]
41 | COc1ccc(C2c3c(-c4c(C)cc(C)cc4O)n[nH]c3C(=O)N2Cc2ccco2)cc1 (stereo not given) | inconclusive: 25.1 µM [inhibitor, full curve, poor fit]
42 | N#Cc1c(NC(=O)c2cnccn2)sc2c1CCCC2 | inactive
43 | CCOCCOC(=O)C1=C(C)Nc2ccc(C)cc2S1 | inconclusive: 50.1 µM [inhibitor, partial curve]
44 | O=C(NCCCN1CCN(c2ccc(F)cc2)CC1)Nc1ccc(Cl)cc1 | inconclusive: 35.5 µM [inhibitor, full curve]
45 | CCn1c(SCC(=O)Nc2nc3ccc(C)cc3s2)nc2c(c1=O)SC(C)C2 (stereo not given) | inconclusive: 100 µM [inhibitor, single point]
46 | Cn1c(=O)[nH]c(=O)c2c1nc(SCCC(=O)O)n2Cc1cccc(Br)c1 | inactive
47 | Cc1c(C(=O)NCC(c2ccco2)N2CCCC2)oc2ccc(Cl)cc12 (stereo not given) | inconclusive: 79.4 µM [inhibitor, single point]
48 | Nc1cccc(-c2cn3ccsc3n2)c1 | inconclusive: 79.4 µM [inhibitor, single point]

Row | SMILES | Potency
49 | CCc1c(C)sc(NC(=O)C2CC2c2ccccc2)c1C(N)=O (stereo not given) | inactive
50 | COc1cccc(-c2nnc(SCC(=O)NCc3ccc4c(c3)OCO4)n2Cc2ccco2)c1 | inconclusive: 79.4 µM [inhibitor, partial curve]
51 | CSCCC1NC2(C(=O)Nc3c2ccc(Cl)c3C)[C@@H]2C(=O)N(C3CCCC3)C(=O)[C@H]12 (stereo not given in full) | inconclusive: 79.4 µM [inhibitor, single point]
52 | CCOC(=O)c1sc(NC(=O)CN2CCN(c3ccc(OC)cc3)CC2)nc1C | active: 35.5 µM
53 | S=C(Nc1ccccc1Cl)N1CCN(c2ccccn2)CC1 | inactive
54 | O=[N+]([O-])c1ccc(/C=N/Nc2ccnc3cc(Cl)ccc23)o1 | active: 28.2 µM
55 | CCc1ccc(NC(=O)CCc2ccc(C)o2)cc1 | inconclusive: 50.1 µM [inhibitor, partial curve]
56 | COc1ccc(N2CCN(CCCNC(=O)C(=O)c3c[nH]c4ccccc34)CC2)cc1 | active: 14.1 µM
57 | Cc1ccc(NC(=O)CSc2n[nH]c(-c3ccco3)n2)cc1 | inactive
58 | CCOC(=O)C1(Cc2ccccc2C(F)(F)F)CCN(C(C)CCn2cccn2)CC1 (stereo not given) | active: 44.7 µM
59 | O=C(/C=C\c1ccccc1)Oc1cccc2cccnc12 | active: 39.8 µM
60 | O=C(OCC(=O)c1ccco1)c1ccc2ncsc2c1 | inactive
61 | Cc1n[nH]c(C)c1CCOc1ccc(C(C)C)cc1 | inconclusive: 3.55 µM [inhibitor, full curve, poor fit]
62 | CCOC(=O)c1ccc(NC(=O)CSc2nnc(CNc3ccc(C)cc3)n2C)cc1 | inactive
63 | O=C(C1=NN[C@@H]2C(=O)N(c3ccccc3C(F)(F)F)C(=O)[C@H]12)c1ccc2ccccc2n1 | inconclusive: 79.4 µM [inhibitor, single point]
64 | CCOc1ccc(CC(=O)C2C(=O)CC(C)(C)CC2=O)cc1OCC | inconclusive: 89.1 µM [inhibitor, single point]
65 | Cc1cccc(N2CCN(C(=O)c3ccc(CS(=O)Cc4ccc(Cl)cc4)o3)CC2)c1C (stereo not given) | inconclusive: 20 µM [inhibitor, full curve, poor fit]
66 | Cc1cc(C)cc(OC(C)C(=O)Nc2ccc3c(c2)n(C)c(=O)n3C)c1 (stereo not given) | inconclusive: 89.1 µM [inhibitor, single point]
67 | COc1cc(/C=C(\C#N)c2nc3ccccc3n2C)cc(OC)c1OC | inactive
68 | COc1cc2c(cc1OC)C(c1cccs1)CC(=O)N2 (stereo not given) | inactive
69 | O=C(O)C1C2CCC(C2)C1C(=O)N1CCCC1 (stereo not given) | inactive
70 | COc1cc(C2c3sc(=O)[nH]c3SC3C(=O)N(c4ccc(C)cc4)C(=O)C32)ccc1O (stereo not given) | inconclusive: 50.1 µM [inhibitor, partial curve]
